The source of these data is the antibiotic and cytotoxicity screens of Wong et al. (2023).

The list shows a part of the results.

The test system of the experiment is HSkMC (human skeletal muscle cells). As to the kind of experiment: cytotoxicity call (relative viability < 0.9). The note with it: 10 µM.
Take `Cc1noc(C)c1S(=O)(=O)Nc1ccc2c(c1)C(=O)N([C@@H](C)CO)C[C@H](C)[C@H](CN(C)S(C)(=O)=O)O2`: the cytotoxicity call was “inactive”. `O=C(C[C@@H]1CC[C@H]2[C@@H](COC[C@@H](O)CN2S(=O)(=O)c2cccc(Cl)c2)O1)NC1Cc2ccccc2C1`: the cytotoxicity call is “inactive”. Under `Cc1noc(C)c1NC(=O)N(C)C[C@@H]1OCCCC[C@H](C)Oc2ccc(NC(=O)Cc3ccccc3)cc2C(=O)N([C@@H](C)CO)C[C@@H]1C` stands “inactive”; under `C[C@@](Cc1ccc(O)c(O)c1)(NN)C(=O)O`, “inactive”; under `O=C(O)CCCCCCCCCCCCC1C=CCC1` (stereo not given), “inactive”. Under `Cc1noc(C)c1S(=O)(=O)N(C)C[C@@H]1Oc2ccc(NS(C)(=O)=O)cc2C(=O)N([C@H](C)CO)C[C@@H]1C` stands “inactive”; under `Cc1noc(C)c1NC(=O)Nc1ccc2c(c1)C(=O)N([C@H](C)CO)C[C@@H](C)[C@@H](CN(C)Cc1ccc(Cl)c(Cl)c1)OCCCC[C@H](C)O2`, “active”. Under `C[C@H]1CN([C@@H](C)CO)S(=O)(=O)c2ccc(-c3cccc(C#N)c3)cc2O[C@H]1CN(C)C(=O)c1ccncc1` stands “inactive”. On to `Cc1noc(C)c1NC(=O)Nc1cccc2c1O[C@@H](CN(C)S(C)(=O)=O)[C@@H](C)CN([C@H](C)CO)C2=O`, for which the cytotoxicity call was “inactive”.

Consider `Cc1noc(C)c1S(=O)(=O)Nc1ccc2c(c1)CC(=O)N([C@H](C)CO)C[C@H](C)[C@H](CN(C)CC1CC1)O2`, for which the cytotoxicity call is “inactive”. Under `C[C@@H]1CN([C@H](C)CO)S(=O)(=O)c2ccc(C#Cc3ccccn3)cc2O[C@@H]1CN(C)Cc1ccccc1` stands “inactive”; under `C[C@H]1CN([C@@H](C)CO)C(=O)c2cc(NC(=O)CCN3CCOCC3)ccc2O[C@@H]1CN(C)S(=O)(=O)c1ccc(Cl)cc1`, “inactive”.

With `C[C@H]1CN([C@@H](C)CO)C(=O)c2cc(C3=CCCCC3)cnc2O[C@@H]1CN(C)C(=O)CN1CCOCC1`, the cytotoxicity call was “inactive”. With `C[C@H](CO)N1C[C@H](C)[C@H](CN(C)S(=O)(=O)c2cccc(F)c2)Oc2ncc(C#Cc3ccccc3)cc2C1=O`, the cytotoxicity call was “inactive”.

`C=CC[C@@H](CC(=O)N[C@@H](CO)Cc1ccccc1)C(=O)N[C@H](COC(=O)[C@@H](CC=C)Cc1ccc(F)cc1)Cc1c[nH]c2ccccc12`: the cytotoxicity call was “inactive”. On to `COc1ccc2c3c(n(c2c1)C)[C@@H](CO)N(C[C@]13CN(C1)C(=O)C1CC1)C(=O)CN1CCOCC1`, for which the cytotoxicity call was “inactive”. For `Nc1nnc(-c2ccno2)o1`, the cytotoxicity call is “inactive”.

Take `Cl.Cl.NCCNCCNCCN`: the cytotoxicity call is “inactive”. For the compound `C[C@@H]1CN([C@H](C)CO)C(=O)c2cc(NS(=O)(=O)c3cccs3)ccc2O[C@@H]1CN(C)Cc1ccc(Cl)c(Cl)c1`, the cytotoxicity call was “inactive”. `CO[C@H]1CN(C)C(=O)c2ccc(NC(=O)CC(F)(F)F)cc2OC[C@H](C)N(C(=O)C2CCOCC2)C[C@H]1C`: the cytotoxicity call is “inactive”. Take `Cc1noc(C)c1S(=O)(=O)N(C)C[C@@H]1Oc2ccc(N(C)C)cc2CC(=O)N([C@@H](C)CO)C[C@H]1C`: the cytotoxicity call was “inactive”. Under `COc1ccc(C(=O)Nc2cccc(CN3C(=O)[C@@]4(O[C@@H](CC(=O)N5Cc6ccccc6C[C@H]5CO)[C@H]([Si](C)(C)c5ccc(OC)cc5)[C@H]4C)c4ccccc43)c2)cc1` stands “inactive”; under `CNC[C@@H]1OCCCC[C@@H](C)Oc2ccc(NC(=O)c3ccncc3)cc2C(=O)N([C@H](C)CO)C[C@H]1C`, “inactive”; under `CO[C@@H]1CCN(C(=O)CS(C)(=O)=O)[C@@H]2CCO[C@H]21`, “inactive”. Under `C[C@@H]1CCCCO[C@H](CN(C)C(=O)Nc2ccc(C(F)(F)F)cc2)[C@H](C)CN([C@@H](C)CO)C(=O)c2cc(NS(=O)(=O)c3cccs3)ccc2O1` stands “inactive”.

For `CC(C)(C)OC(=O)C[C@H]1CC=CC[C@H](CC(=O)N[C@@H](CO)Cc2ccccc2)C(=O)N2CCC[C@@H]2COC1=O`, the cytotoxicity call was “inactive”. Under `CC(N)(Cc1ccc(O)c(O)c1)C(=O)O` (stereo not given) stands “inactive”; under `COc1ccc(NC(=O)N(C)C[C@@H]2OCCCC[C@@H](C)Oc3ccc(NS(=O)(=O)c4ccc(Cl)cc4)cc3C(=O)N([C@@H](C)CO)C[C@H]2C)cc1`, “inactive”. With `COc1ccc(S(=O)(=O)Nc2ccc3c(c2)C(=O)N([C@H](C)CO)C[C@@H](C)[C@@H](CN(C)S(=O)(=O)c2ccc(Cl)cc2)OCCCC[C@@H](C)O3)cc1`, the cytotoxicity call is “inactive”. `COc1ccccc1C#Cc1cnc2c(c1)C(=O)N([C@H](C)CO)C[C@@H](C)[C@@H](CN(C)C(=O)CC1CC1)O2`: the cytotoxicity call is “inactive”.

As to `Cc1noc(C)c1NC(=O)Nc1ccc2c(c1)C(=O)N([C@H](C)CO)C[C@@H](C)[C@H](CN(C)C(=O)Nc1c(C)noc1C)OCCCC[C@@H](C)O2`, the cytotoxicity call was “inactive”. On to `C[C@@H]1CN([C@@H](C)CO)C(=O)Cc2cc(NC(=O)Nc3ccc4c(c3)OCO4)ccc2O[C@@H]1CN(C)C(=O)Nc1cccc2ccccc12`, for which the cytotoxicity call was “inactive”. With `NC(CC(=O)N1CCn2c(nnc2C(F)(F)F)C1)Cc1cc(F)c(F)cc1F.O.O=P(O)(O)O` (stereo not given), the cytotoxicity call was “inactive”. Under `COCC(=O)N(C)C[C@@H]1Oc2cc(C#CC(C)(C)O)ccc2S(=O)(=O)N([C@@H](C)CO)C[C@H]1C` stands “inactive”; under `c1ccc(Oc2nnc(-c3ccccc3)c3ccccc23)cc1`, “inactive”; under `CCc1cccc(C(C)C)c1NC(=O)Nc1ccccc1`, “inactive”.

In the case of `C[C@@H]1CN([C@H](C)CO)C(=O)c2cc(NC(=O)Nc3ccc(F)cc3)ccc2O[C@@H](C)CCCCO[C@@H]1CN(C)S(=O)(=O)c1cccs1`, the cytotoxicity call was “inactive”. Turning to `C[C@H](CO)N1C[C@H](C)[C@H](CN(C)S(=O)(=O)c2ccc(Cl)cc2)OCc2ccccc2-c2c(n(C)c3ccccc23)C1=O`, the cytotoxicity call was “inactive”. On to `C[C@@H]1CN([C@H](C)CO)C(=O)CCCn2nncc2CO[C@@H]1CN(C)C(=O)Nc1ccc2c(c1)OCCO2`, for which the cytotoxicity call is “inactive”.

For the compound `COc1ccc(C#Cc2cnc3c(c2)C(=O)N([C@@H](C)CO)C[C@H](C)[C@H](CN(C)CC2CCOCC2)O3)cc1`, the cytotoxicity call is “inactive”.
